Positions count from the first letter of the chain named.
T1: Human IL-1R-I-Fc (Creative BioMart cat. no. IL1RI-771H) (human, UniProt P14778 18-332, limits assumed)
T1 construct: bought protein; also called hIL-1R-I-Fc; hIL-1RI-Fc
T1 sequence (looked up): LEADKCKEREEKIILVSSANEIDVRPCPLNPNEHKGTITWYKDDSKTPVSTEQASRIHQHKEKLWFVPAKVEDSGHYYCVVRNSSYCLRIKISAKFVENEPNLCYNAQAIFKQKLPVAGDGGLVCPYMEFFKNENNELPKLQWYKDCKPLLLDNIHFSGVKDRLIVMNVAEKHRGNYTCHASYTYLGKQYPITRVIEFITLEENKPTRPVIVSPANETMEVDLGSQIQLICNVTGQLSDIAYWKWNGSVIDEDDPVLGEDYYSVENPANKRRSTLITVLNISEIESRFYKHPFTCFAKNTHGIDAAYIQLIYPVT

B1: Z16116-ABD (designed binder)
chain: AQHDEALEVDAKYAKEVEAAQMEIFGLPNLTRKQYTAFIRKLLDDPSQSSELLSEAKKLNDSQAPKVDYVLAEAKVLANRELDKYGVSDYYKNLINNAKTVEGVKALIDEILAALPYVPG
B2: Z16117-ABD (designed binder)
chain: B1 chain with V17I, A19K, M22F, G26A, L43F
B3: Z16121-ABD (designed binder)
chain: B1 chain with A19D, Q21Y, M22F, F25Y, G26N
B4: Z16122-ABD (designed binder)
chain: B1 chain with V17A, A19D, Q21Y, F25Y, G26S, K33R
B5: Z16127-ABD (designed binder)
chain: B1 chain with V17I, A19I
B6: Z16135-ABD (designed binder)
chain: B1 chain with A19L, M22H, G26Q, L43F
B7: Z16141-ABD (designed binder)
chain: B1 chain with E18V, A19Q, Q21Y, M22D, F25Y
B8: Z16143-ABD (designed binder)
chain: B1 chain with V17I, G26R
B9: Z16155-ABD (designed binder)
chain: B1 chain with V17T, E18W, A19Y, G26S
B10: Z16156-ABD (designed binder)
chain: B1 chain with V17I, A19R, G26S
B11: Z16161-ABD (designed binder)
chain: B1 chain with A19Y, F25Y, G26S, K33R
B12: Z16162-ABD (designed binder)
chain: B1 chain with V17A, A19S, Q21Y, M22W, F25Y, G26H
B13: Z16163-ABD (designed binder)
chain: B1 chain with A19R, G26E, K33R
B14: Z16164-ABD (designed binder)
chain: B1 chain with A19E, Q21Y, F25Y, G26N
B15: Z16165-ABD (designed binder)
chain: B1 chain with V17I, A19V, F25Y, G26S, L43F
B16: Z16168-ABD (designed binder)
chain: B1 chain with V17A, E18V, A19S, Q21Y, M22W, G26A, K33R
B17: Z16169-ABD (designed binder)
chain: B1 chain with V17T, A19E, G26Y, K33R
B18: Z16173-ABD (designed binder)
chain: B1 chain with V17I, Q21Y, M22A, F25Y, G26Q
B19: Z16178-ABD (designed binder)
chain: B1 chain with A19E, G26F, R40I, L43F
B20: Z16206-ABD (designed binder)
chain: B1 chain with A19E, G26N, L43F
B21: Z16207-ABD (designed binder)
chain: B1 chain with A19E, F25Y, G26N
B22: Z16219-ABD (designed binder)
chain: B1 chain with V17I, A19H, M22L, G26S
B23: Z16234-ABD (designed binder)
chain: B1 chain with A19D, Q21Y, M22Y, F25Y, G26S
B24: Z16236-ABD (designed binder)
chain: B1 chain with V17T, A19E, G26N
B25: Z16241-ABD (designed binder)
chain: B1 chain with A19D, Q21Y, M22W, F25Y, G26A
B26: Z16243-ABD (designed binder)
chain: B1 chain with A19E, Q21Y, F25Y, G26Q
B27: Z16245-ABD (designed binder)
chain: B1 chain with A19T, Q21Y, M22F, G26A
B28: Z16246-ABD (designed binder)
chain: B1 chain with A19D, Q21Y, G26K
B29: Z16255-ABD (designed binder)
chain: B1 chain with V17T, A19D, Q21Y, F25Y, G26A
B30: Z16263-ABD (designed binder)
chain: B1 chain with V17A, A19K, Q21Y, M22W, F25Y, G26A
B31: Z16264-ABD (designed binder)
chain: B1 chain with A19V, Q21Y, M22F, G26A
B32: Z16277-ABD (designed binder)
chain: B1 chain with A19D, Q21Y, M22Y, F25Y, G26E
B33: Z16301-ABD (designed binder)
chain: B1 chain with V17I, G26E
B34: Z16302-ABD (designed binder)
chain: B1 chain with A19T, Q21Y, M22F, F25Y, G26N
B35: Z16305-ABD (designed binder)
chain: B1 chain with A19S, Q21Y, M22F, F25Y, G26S
B36: Z16312-ABD (designed binder)
chain: B1 chain with A19K, G26D
B37: Z16319-ABD (designed binder)
chain: B1 chain with V17I, A19E, G26S, L43F
B38: Z16321-ABD (designed binder)
chain: B1 chain with V17I, A19E, F25Y, G26T
B39: Z16329-ABD (designed binder)
chain: B1 chain with A19D, Q21Y, M22F, F25Y, G26K
B40: Z16341-ABD (designed binder)
chain: B1 chain with V17L, G26A, K33R
B41: Z16363-ABD (designed binder)
chain: B1 chain with A19Q, G26R
B42: Z16377-ABD (designed binder)
chain: B1 chain with V17T, A19R, G26Y
B43: Z16378-ABD (designed binder)
chain: B1 chain with A19S, Q21Y, M22F, G26K
B44: Z16388-ABD (designed binder)
chain: B1 chain with V17H, A19D, Q21Y, F25Y, G26A
B45: Z16405-ABD (designed binder)
chain: B1 chain with V17T, A19D, Q21Y, M22F, F25Y, G26H

Biological target: T1, Human IL-1R-I-Fc (Creative BioMart cat. …)
Assay: ELISA, hIL-1R-I-Fc titration on Z-ABD

Row | Binder | EC50
1 | B1 | 0.21 nM
2 | B2 | 0.21 nM
3 | B3 | 0.23 nM
4 | B4 | 0.29 nM
5 | B5 | 0.21 nM
6 | B6 | 0.25 nM
7 | B7 | 0.28 nM
8 | B8 | 0.21 nM
9 | B9 | 0.29 nM
10 | B10 | 0.24 nM
11 | B11 | 0.25 nM
12 | B12 | 0.27 nM
13 | B13 | 0.17 nM
14 | B14 | 0.68 nM
15 | B15 | 0.22 nM
16 | B16 | 0.28 nM
17 | B17 | 0.18 nM
18 | B18 | 0.36 nM
19 | B19 | 0.24 nM
20 | B20 | 0.45 nM
21 | B21 | 0.22 nM
22 | B22 | 0.24 nM
23 | B23 | 0.54 nM

Row | Binder | EC50
24 | B24 | 0.24 nM
25 | B25 | 0.49 nM
26 | B26 | 0.22 nM
27 | B27 | 0.22 nM
28 | B28 | 0.39 nM
29 | B29 | 0.17 nM
30 | B30 | 0.26 nM
31 | B31 | 0.3 nM
32 | B32 | 0.26 nM
33 | B33 | 0.22 nM
34 | B34 | 0.28 nM
35 | B35 | 0.22 nM
36 | B36 | 0.24 nM
37 | B37 | 0.3 nM
38 | B38 | 0.27 nM
39 | B39 | 0.45 nM
40 | B40 | 0.17 nM
41 | B41 | 0.2 nM
42 | B42 | 0.21 nM
43 | B43 | 0.2 nM
44 | B44 | 0.29 nM
45 | B45 | 0.36 nM

Reference: US20250066451A1 (SWEDISH ORPHAN BIOVITRUM AB PUBL, published 2025)
